# Inconclusive means that the source gave no clear call. Such entries were picked first, then a sample of the others. Potencies of inconclusive entries are left out as doubtful fits. The source made the active and inactive calls. Calls come from the whole dose curve; as a rule, active = well fitted cell-killing curve with a large enough effect in the repeat runs; inconclusive = weak or mixed curves, or effect the other way; inactive = no such curve, though single readings can be large or run the other way.
# Assay: qHTS assay to identify small molecule agonists of the vitamin D receptor (VDR) signaling pathway - cell viability counter screen (AID 743224); note: nearly all actives have a fitted effect of over 50% in size
# Settings: VDR-bla HEK293T viability, CellTiter-Glo luminescence, 16 h; activity change, negative = cytotoxicity: at 62.6 µM (top of the series)
# In short: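 In parallel with the bla FRET readout, cytotoxicity toward VDR-bla cells after 16 h compound exposure was assessed by CellTiter-Glo, with luminescence recorded after a 30 min room-temperature incubation.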
# % is set by controls: 0 for no effect and ±100 for the full control effect; potency is the fitted concentration of half-maximal effect; tags give direction and shape of the fitted curve.
Structure (SMILES),Potency,"activity change, negative = cytotoxicity"
CCCCN(CCN(CCCC)C(=O)N1CCOCC1)C(=O)N1CCOCC1,active: 33.5 µM,
CCCCCCCC(=O)OC,inactive,
Cc1c(F)c(N2CCNC(C)C2)cc2c1c(=O)c(C(=O)O)cn2C1CC1 (stereo unspecified),"inconclusive [rising, partial curve, poor fit]",
CC(C)(COC(=O)c1ccccc1)COC(=O)c1ccccc1,,inactive: -4.83%
CC1=C(CC=O)C(C)(C)CCC1,,inactive: -4.83%
OC1CCCCC1,inactive,
